Paper PMC3510490 (Nucleic Acids Research, 2012)

Target: T1, (H3–H4)2 tetramer (Xenopus laevis, UniProt P84233; P62799, H4 E63C, Alexa 488 maleimide on C63 (H4 E63C))
T1 construct: Histone H3, Xenopus laevis; also called H3–H4 tetramer; H3–H4 complex; copies: 2 + 2
Assay: other fluorescence titration; Arp constructs or sub-complex titrated (1 to 5000 nM) into fluorescently labelled histone complexes or nucleosomes kept at 0.5-1 nM, 40 µl in microplates; 20 mM Tris pH 7.5, 150 mM KCl, 5% glycerol, 1 mM TCEP, 0.01% CHAPS, 0.01% octylglucoside; room temperature, 20-30 min; apparent Kd and Hill coefficient from non-linear fit; quadruplicates
Settings: both partners purified

B1: Homo sapiens Arp8 (Δ[…]) (domain or fragment)
chain: not shown
notes: Actin-related protein 8 (Arp8), INO80 complex subunit, human, […], amplified from human macrophage cDNA; Tag cut off with PreScission protease; also called Hs Arp8 (Δ[…]); human Arp8 (Δ[…]); source: E. coli BL21(DE3), purified (Ni-NTA, Q sepharose, tag cleavage, second Ni-NTA, Superdex-200); not shown: His8, N-terminal, cleaved
Kd: 65.1 nM
